Results as given in PubChem BioAssay AID493208 (National Center for Advancing Translational Sciences (NCATS), 2011).
About 340 (0.77%) of roughly 44,000 compounds were called active. About 5% were inconclusive and are not listed. Calls come from the whole dose curve; as a rule, active = well fitted inhibition curve with a large enough effect; inconclusive = small, poorly fitted or top-dose-only effect; inactive = flat fitted curve, though single readings scatter. Some of the results follow.

Assay: Acumen qHTS Assay for Inhibitors of the mTORC1 Signaling Pathway in MEF (Tsc2-/-, p53-/-) Cells: Sytravon;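 note: plate controls were DMSO for no effect and rapamycin for full effect; nearly all actives have a fitted effect of over 50% in size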
Settings: phospho-rpS6 immunofluorescence/PI, 24 h; series mostly up to 38.3 µM; activity change, negative = inhibition: at the top concentration
Procedure, shortened: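 Cell-based qHTS: Tsc2-/- p53-/- MEF, 24 h cpd, 37 °C; fix/perm, anti-phospho-S6 Alexa-488 + PI; Acumen 488 nm scan; pS6/PI ratio, % positive cells; rapamycin 7.5 nM = inhibition ref; PI count = viability.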

Activity change, negative = inhibition, inactive:
Cn1c(=O)c2c(-c3ccccc3)n3c(c2n(C)c1=O)C(c1cc(Cl)ccc1O)Nc1ccccc1-3 (stereo not given) 0.241%, O=C(CCNS(=O)(=O)c1cccc2nsnc12)Nc1ccc(F)cc1 0%, Cc1ccc2cccc(NC(=O)c3ccc(-c4ccc(Cl)cc4Cl)o3)c2n1 -4.98%, COc1ccc(OC)c(CNC(=O)c2cc(=O)[nH]c3ccc(S(=O)(=O)N4CCCCC4C)cc23)c1 (stereo not given) -5.35%, COc1cccc(NC(=O)Cn2c(=O)n(Cc3nc(-c4ccccc4)no3)c(=O)c3ccccc32)c1 0.373%, COc1ccccc1/C=C(\C#N)c1nc(-c2cc3ccccc3oc2=O)cs1 -7.06%, CCC(=O)Nc1ccc(S(=O)(=O)NCc2cccn2Cc2cccc(C)c2)cc1 8.15%, CCOC(=O)N1CCC(NC(=O)c2cnn(-c3ccccc3)c2C2CCN(C(=O)OC(C)(C)C)CC2)CC1 -0.593%, COc1ccc(S(=O)(=O)NCCc2sc(-c3ccccc3)nc2C)cc1OC 2.63%, O=C(NCCC1=CCCCC1)c1ccc2c(c1)ncn2-c1cccc(Cl)c1 0.347%, CCc1ccccc1NC(=O)CSc1ncc2c(n1)-c1ccccc1N(C)S2(=O)=O 5.75%, COc1ccc(-n2c(SCC(=O)NCc3ccccc3)nc3ccsc3c2=O)cc1 -8.17%, COC(=O)c1sccc1S(=O)(=O)N(CC(=O)Nc1cc(C)cc(C)c1)c1ccc(Cl)cc1 -7.87%, COc1ccc(CNC(=O)CN2C(=O)COc3ccc(S(=O)(=O)N4CCCCCC4)cc32)cc1 -2.12%, COc1ccc(NC(=O)c2nn(C)c3c2CSc2ccc(C)cc2-3)cc1OC 0.822%, Cc1ccc(C2Nc3ccccc3-n3c(-c4ccccc4)c4c(=O)n(C)c(=O)n(C)c4c32)cc1 (stereo not given) -11.9%, COc1cccc(NC(=O)c2ccc3c(=O)n4nc(Nc5ccccc5OC)sc4nc3c2)c1 -7.03%, COc1ccc(CNC(=O)c2ccc(CNS(=O)(=O)c3ccc(OC)cc3)cc2)cc1 -6.89%, COCCCNC(=O)c1ccc(Cn2c(=O)c3ccccc3n(Cc3ccc(C)cc3)c2=O)cc1 -1.14%, COCCOC(=O)Cn1nnc2sc(-c3ccccc3)cc2c1=O 5.57%, CCOC(=O)c1ccc(NC(=O)CC2Nc3cc(C)c(C)cc3NC2=O)cc1 (stereo not given) 0.657%, Cc1nn(S(=O)(=O)c2ccc(C(C)C)cc2)c(C)c1S(=O)(=O)N1CCCCC1 -0.512%, Cc1ccc2c(c1)-c1c(cnn1CC(=O)N1CCN(c3cccc(C(F)(F)F)c3)CC1)CO2 6.31%, CC(=O)N1CCCc2cc(S(=O)(=O)N3CCCC(C(=O)N4CCN(c5ccccc5F)CC4)C3)ccc21 (stereo not given) -15%, CCc1cccc(C)c1NS(=O)(=O)c1ccc2c(c1)NC(=O)C(C)C(=O)N2 (stereo not given) -0.645%, CCOc1ccc(-n2c(=O)c3c4c(sc3n(CC(=O)NCCCOC)c2=O)CCCCC4)cc1 4.15%, Cc1nc(SCC(=O)OC(C)(C)C)c2c3c(sc2n1)CCCC3 -13.4%, CCN(CC)c1ccc2cc(-c3nc(-c4ccccc4)no3)c(=O)oc2c1 0.0245%, O=C(NCc1cccc(Cl)c1)C1CCN(c2nn3cc(-c4ccc(F)cc4)nc3s2)CC1 -2.92%, COc1ccc(-c2cn3nc(N4CCCC(C(=O)Nc5cc(Cl)ccc5OC)C4)sc3n2)cc1 (stereo not given) -0.786%, Cc1ccc(CNC(=O)c2c(-c3ccc(F)cc3F)noc2C)o1 -4.37%, Cc1cc(C)c(NC(=O)Cn2nnc(C(=O)NCc3cccs3)c2N)c(C)c1 -17.6%, COc1ccc(CC(=O)NCC(c2ccc(N(C)C)cc2)N2CCOCC2)cc1OC (stereo not given) 0%, Cc1ccccc1OCc1ccc(-c2nc(C#N)c(N3CCCCC3)o2)o1 -4.5%, COc1cc(NC(=O)Cn2c(=O)n(-c3ccccc3)c(=O)c3c4c(sc32)CCCC4)cc(OC)c1 2.05%, CCCCNC(=O)c1cnn2c(C)c(Cc3c(C)cc(C)cc3C)c(C)nc12 1.06%, CSc1ccc(CNC(=O)c2ccc3c(c2)N(C)C(=O)C2CCCCN32)cc1 (stereo not given) -6.43%, CC(C)COc1ccc(C(=O)Nc2scc(-c3ccc(Br)cc3)c2C(=O)OC(C)C)cc1 -9.2%, CCOC(=O)c1cc2c(=O)n3ccccc3nc2n(Cc2ccco2)c1=NC(=O)c1ccc(OC)cc1 -0.0758%, COc1ccc(C(=O)COC(=O)CCCC(=O)Nc2ccc(C(C)=O)cc2)cc1 -10.5%, CCOc1ccc(-n2nc(CO)c(C(=O)NCC(c3ccccc3)c3ccccc3)n2)cc1 4.28%, Cc1nc2cccnc2n1C1CCN(C(=O)Nc2ccccc2C(F)(F)F)CC1 0%, CNS(=O)(=O)c1cn(CC(=O)N2CCN(c3ccc(Cl)cc3)CC2)cc1S(=O)(=O)NC -3.56%, O=c1ccc2cc(S(=O)(=O)NCc3ccc(Cl)cc3)ccc2[nH]1 6.87%, O=C(NCc1ccccc1)c1cccc(N2CCCS2(=O)=O)c1 6.52%, COc1ccc(-c2cn3nc(SCC(=O)Nc4ccccc4F)ccc3n2)cc1 6.19%, Cc1cc(C)c(NC(=O)COCc2cc(-c3cccs3)on2)c(C)c1 0.588%, COC(=O)c1scc(-c2ccc(C)cc2)c1S(=O)(=O)Nc1ccc(NC(C)=O)cc1 -18.2%, Cc1cccc(OCC(=O)Nc2cccc(C(=O)OCc3cc(=O)n4c(C)csc4n3)c2)c1 0%, COc1ccc(S(=O)(=O)N(CC(=O)NCCSc2ccccc2)c2ccc(Cl)cc2)cc1 -27.7%, O=C(CSc1nccn1Cc1ccc(F)cc1)NCc1ccccc1 -9.53%, CCc1cccc(N2C(=O)CSC23C(=O)N(Cc2ccccc2F)c2ccccc23)c1 (stereo not given) -2%, COc1ccc(-n2ncc(C(=O)NCc3ccc4c(c3)OCO4)c2C2CCN(C(=O)OC(C)(C)C)CC2)cc1 -3.83%, CCCSc1ncc(Cl)c(C(=O)Nc2sc3c(c2C(N)=O)CCCC3)n1 -11%, Cc1ccccc1CNC(=O)Cc1csc2ccccc12 -9.34%, CCN(CC)C(=O)c1sc2c(c1C)c(=O)n(Cc1ccccc1)c(=O)n2CC(=O)Nc1ccc(OC)cc1 -2.2%, COc1ccccc1NC(=O)CCNS(=O)(=O)c1ccc2c(c1)CCN2C(=O)C1CC1 -17.8%, COC(=O)c1ccc(-n2nnc(-c3nsc(NC(=O)c4ccc(Cl)cc4)n3)c2C)cc1 0.163%, O=c1c(NCCc2ccc(Cl)cc2)nccn1-c1ccccc1 5.76%, COc1ccc(OC)c(CCNC(=O)c2cc3cccc4c3n2CCS4)c1 -11.7%
